Among the data in the supplement of paper PMC4967469 are AUC and IC50 values, retold here.

By IC50 is meant the dose at which the fit gives 50% viability; a fit beyond the top or the lowest dose is shown as a bound at that dose. AUC sums up the same curve from the lowest dose to the 256-fold higher top dose; values near 1 show little effect. The top dose, if marked as inferred, was derived from the fitted curves, not read from the paper. For part of these data: An entry number marks a drug with two screens in the source, which often give different values. Some results are limits rather than exact numbers.

Compound in one test: Cc1cc(N2CCOCC2)cc2[nH]c(-c3c(NC[C@@H](O)c4cccc(Cl)c4)cc[nH]c3=O)nc12 [BMS-536924]
The test is described as follows: Viability of human cancer cell lines after 72 h of drug (GDSC screen). Particulars: top dose 4 µM; screen: GDSC drug entry 1091; top dose inferred. As for the experimental part: (§1)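 Human cancer cell lines in 384-well plates, medium with 10% serum, drug for 72 h over a 256-fold dose range (nine 2-fold or five 4-fold steps up to the top dose). Adherent lines were fixed and stained with the nucleic acid dye Syto60, suspension lines read with resazurin; signal relative to control wells, capped at 0 and 100%. One two-parameter sigmoid per drug and line, fitted in a mixed model over all curves with the slope shared within a line.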
By IC50 is commonly meant the concentration that gives 50% inhibition. As for D-423MG (glioma, adherent), the AUC came out at 0.935 and the IC50 is over 4 µM.
Take D-566MG (glioma, adherent): the AUC stood at 0.939 and the IC50 is over 4 µM.
The like results for ESO26 (oesophagus, adherent) were, in that order, 0.988 and over 4 µM.
The like results for ESO51 (oesophagus, semi-adherent) were, in that order, 0.977 and over 4 µM.
As for EW-22 (Ewing sarcoma, adherent), the AUC turned out to be 0.789 and the half-inhibitory concentration (IC50) amounted to 1.7 µM.
As to H290 (mesothelioma, adherent), the AUC was 0.964 and the IC50 is over 4 µM.
In the case of HCC202 (breast, adherent), the AUC was 0.973 and the IC50 is over 4 µM.
On to “HCC-366 (non-small cell lung carcinoma, adherent)”, for which the AUC worked out at 0.916 and the IC50 is over 4 µM.
Consider JHU-029 (head and neck, adherent), for which the AUC was 0.809 and the IC50 amounted to 2.69 µM.
Turning to KATOIII (stomach, semi-adherent), the AUC turned out to be 0.803 and the IC50 was determined as 1.78 µM.
As for KYAE-1 (oesophagus, suspension), the AUC stood at 0.966 and the 50% inhibitory concentration (IC50) is over 4 µM.
As for MKN7 (stomach, adherent), the AUC amounted to 0.982 and the IC50 was over 4 µM.
In the case of NCC010 (kidney, adherent), the AUC came to 0.903 and the IC50 is over 4 µM.
Consider “NCI-H508 (large intestine, semi-adherent)”, for which the AUC turned out to be 0.881 and the IC50 was over 4 µM.
On to NCI-N87 (stomach, adherent), for which the AUC turned out to be 0.935 and the IC50 is over 4 µM.
As to OC-314 (ovary, adherent), the AUC amounted to 0.977 and the IC50 is over 4 µM.
With OCI-LY7 (B-cell lymphoma, suspension), the AUC came out at 0.945 and the IC50 was 3.67 µM.
For OVKATE (ovary, adherent), the AUC turned out to be 0.951 and the IC50 is over 4 µM.
On to QGP-1 (pancreas, adherent), for which the AUC was 0.896 and the IC50 was over 4 µM.
With RCC-ER (kidney, adherent), the AUC worked out at 0.871 and the IC50 is over 4 µM.
The matching figures for SCC90 (head and neck, adherent): 0.907 and over 4 µM.
Regarding SK-MEL-5 (melanoma, adherent), the AUC was 0.929 and the IC50 was over 4 µM.
Turning to SK-MG-1 (glioma, adherent), the AUC was found to be 0.97 and the IC50 was over 4 µM.
Take SNU-81 (large intestine, adherent): the AUC stood at 0.97 and the IC50 was over 4 µM.
For SNU-407 (large intestine, adherent), the AUC amounted to 0.877 and the IC50 was over 4 µM.
Consider SNU-C5 (large intestine, adherent), for which the AUC came out at 0.967 and the IC50 was over 4 µM.
For STS-0421 (soft tissue, adherent), the AUC is 0.756 and the IC50 is 1.58 µM.
Take “VMRC-LCD (lung adenocarcinoma, adherent)”: the AUC was determined as 0.971 and the IC50 was over 4 µM.
The like results for YH-13 (glioma, adherent) were, in that order, 0.97 and over 4 µM.
Turning to ZR-75-30 (breast, adherent), the AUC was 0.937 and the IC50 is over 4 µM.

Compound in another test: NC(=O)c1ccc(N(C(N)=O)c2c(F)cccc2F)nc1-c1ccc(F)cc1F [VX-702]
The description is as above. To be noted: top dose 2 µM; top dose inferred. Here is the method: as §1
As for A2780 (ovary, semi-adherent), the AUC is 0.935 and the IC50 was over 2000 nM.
For AGS (stomach, adherent), the AUC was 0.99 and the 50% inhibitory concentration (IC50) was over 2000 nM.
With CADO-ES1 (Ewing sarcoma, suspension), the AUC is 0.969 and the IC50 is over 2000 nM.
On to D-423MG (glioma, adherent), for which the AUC came to 0.978 and the IC50 was over 2000 nM.
The matching figures for D-566MG (glioma, adherent): 0.963 and over 2000 nM.
As for ESO26 (oesophagus, adherent), the AUC was determined as 0.985 and the IC50 is over 2000 nM.
ESO51 (oesophagus, semi-adherent): the AUC amounted to 0.82 and the IC50 amounted to 1820 nM.
As to EW-22 (Ewing sarcoma, adherent), the AUC was 0.988 and the IC50 was over 2000 nM.
Consider H290 (mesothelioma, adherent), for which the AUC worked out at 0.975 and the IC50 was over 2000 nM.
The matching figures for HCC202 (breast, adherent): 0.98 and over 2000 nM.
On to “HCC-366 (non-small cell lung carcinoma, adherent)”, for which the AUC came to 0.988 and the IC50 was over 2000 nM.
As to JHU-029 (head and neck, adherent), the AUC is 0.957 and the IC50 was over 2000 nM.
With KATOIII (stomach, semi-adherent), the AUC stood at 0.98 and the IC50 is over 2000 nM.
For KYAE-1 (oesophagus, suspension), the AUC came out at 0.94 and the IC50 is over 2000 nM.
With KYSE-140 (oesophagus, adherent), the AUC stood at 0.984 and the IC50 is over 2000 nM.
Turning to MKN7 (stomach, adherent), the AUC worked out at 0.981 and the IC50 was over 2000 nM.
MKN28 (stomach, adherent): the AUC amounted to 0.986 and the IC50 was over 2000 nM.
The matching figures for NCC010 (kidney, adherent): 0.986 and over 2000 nM.
In the case of “NCI-H508 (large intestine, semi-adherent)”, the AUC was found to be 0.837 and the IC50 is over 2000 nM.
Regarding NCI-N87 (stomach, adherent), the AUC was determined as 0.979 and the IC50 was over 2000 nM.
Turning to OC-314 (ovary, adherent), the AUC worked out at 0.991 and the IC50 was over 2000 nM.
In the case of OCI-LY7 (B-cell lymphoma, suspension), the AUC came out at 0.973 and the IC50 was over 2000 nM.
In the case of OVKATE (ovary, adherent), the AUC is 0.979 and the IC50 was over 2000 nM.
The matching figures for QGP-1 (pancreas, adherent): 0.939 and over 2000 nM.
The like results for RCC-ER (kidney, adherent) were, in that order, 0.985 and over 2000 nM.
Consider SCC90 (head and neck, adherent), for which the AUC was determined as 0.981 and the IC50 was over 2000 nM.
SK-MEL-5 (melanoma, adherent): the AUC came out at 0.965 and the IC50 is over 2000 nM.
Take SK-MG-1 (glioma, adherent): the AUC is 0.981 and the IC50 was over 2000 nM.
As for SNU-81 (large intestine, adherent), the AUC amounted to 0.982 and the IC50 is over 2000 nM.
For the cell line SNU-407 (large intestine, adherent), the AUC came to 0.983 and the IC50 is over 2000 nM.
Regarding SNU-C5 (large intestine, adherent), the AUC came to 0.986 and the IC50 was over 2000 nM.
Regarding STS-0421 (soft tissue, adherent), the AUC is 0.982 and the IC50 is over 2000 nM.
The matching figures for “VMRC-LCD (lung adenocarcinoma, adherent)”: 0.993 and over 2000 nM.
As for YH-13 (glioma, adherent), the AUC was 0.983 and the IC50 is over 2000 nM.
Turning to ZR-75-30 (breast, adherent), the AUC worked out at 0.983 and the IC50 was over 2000 nM.

Compound in a further test: Cc1ccc(-n2nc(C(C)(C)C)cc2NC(=O)Nc2ccc(OCCN3CCOCC3)c3ccccc23)cc1 [BIRB 0796]
Described as above. Particulars: top dose 10 µM; top dose inferred. As for the experimental part: as §1
For the cell line A2780 (ovary, semi-adherent), the AUC turned out to be 0.966 and the IC50 is over 10 µM.
